Whole data set: some 110,000 compounds, median “z-score” near -0.1, cut for the highest 2% near 2. The list shows a part of the results.
molecular target: Metabotropic glutamate receptor 8 (Rattus norvegicus) (UniProt P70579); test: rat mGluR8 modulators via GIRK flux, primary screen, cell-based, thallium flux, HTS (AID 488969); conditions: HEK293 rat mGluR8, GIRK (G protein-gated inwardly rectifying potassium channel) thallium flux, FluoZin2; at 10 µM; stronger effect = higher value; submaximal glutamate (EC20) added with thallium
Sequence of UniProt P70579 (P70579 whole entry, looked up): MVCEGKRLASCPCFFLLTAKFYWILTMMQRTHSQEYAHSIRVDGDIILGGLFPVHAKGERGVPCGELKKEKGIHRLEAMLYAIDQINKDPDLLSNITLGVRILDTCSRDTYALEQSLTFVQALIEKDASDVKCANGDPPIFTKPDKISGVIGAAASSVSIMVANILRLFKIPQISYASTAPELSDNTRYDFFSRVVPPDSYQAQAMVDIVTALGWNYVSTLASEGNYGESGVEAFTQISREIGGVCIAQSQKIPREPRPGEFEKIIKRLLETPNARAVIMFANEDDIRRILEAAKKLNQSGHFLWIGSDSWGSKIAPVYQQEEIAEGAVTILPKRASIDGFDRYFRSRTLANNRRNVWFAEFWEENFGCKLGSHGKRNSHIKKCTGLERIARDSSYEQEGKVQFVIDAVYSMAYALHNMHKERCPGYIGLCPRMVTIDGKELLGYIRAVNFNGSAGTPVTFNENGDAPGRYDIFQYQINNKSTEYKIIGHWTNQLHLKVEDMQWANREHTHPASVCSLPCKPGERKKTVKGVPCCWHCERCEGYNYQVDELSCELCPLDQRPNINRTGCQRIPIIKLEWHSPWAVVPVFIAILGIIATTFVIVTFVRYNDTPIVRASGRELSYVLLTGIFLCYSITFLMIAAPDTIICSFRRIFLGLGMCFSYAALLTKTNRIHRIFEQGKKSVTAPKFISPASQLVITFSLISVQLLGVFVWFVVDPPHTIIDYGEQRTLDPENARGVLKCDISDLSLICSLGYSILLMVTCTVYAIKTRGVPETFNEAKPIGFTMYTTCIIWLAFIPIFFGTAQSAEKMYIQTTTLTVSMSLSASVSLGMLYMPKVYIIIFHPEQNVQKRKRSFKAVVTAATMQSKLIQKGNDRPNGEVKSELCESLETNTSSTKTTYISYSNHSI

Compound	z-score
COc1ccc(CCNC(=O)Cn2c(-c3nonc3N)nc3ccccc32)cc1OC	-0.243
Fc1ccccc1N1CCN(Cc2nc(-c3ccccc3)no2)CC1	-0.0575
COc1ccccc1Nc1ncccc1C(=O)NCc1ccccc1	0.0123
CC(=O)c1ccc(N2CCN(C(=O)c3ccc4c(=O)n(-c5ccccc5)c(=O)[nH]c4c3)CC2)cc1	-0.327
Cc1c(NC(=O)OC(C)C)sc(=S)n1C	-0.154
Cc1cc(C(=O)N2CCN(c3ncccn3)CC2)cs1	-0.16
CC(C)Cn1c(C(C)C)nc([N+](=O)[O-])c1Sc1ccc(Cl)cn1	-0.454
Clc1cc(CSc2ccccc2)nc(-c2ccccc2)n1	-0.144
COC(=O)CSc1ncc(OC)c(OC)n1	0.123
COc1cc(-c2nnc(-c3cccs3)o2)cc(OC)c1OC	2.27
CC1=CC(C)(C)NC(=S)N1c1ccccc1	-0.245
CC(=O)C1=C(O)C(=O)N(CCc2c[nH]c3ccccc23)C1c1cccc(O)c1 (stereo unspecified)	-0.00532
COc1cc(C)ccc1OCCCOc1c(Cl)cccc1Cl	-0.0753
Cc1ccc(-n2c(COc3c(C)cccc3C)nnc2SCC(=O)Nc2nccs2)cc1	-0.0629
O=C(O)c1ccoc1CN1CCCCC1	-0.206
CCC/C(=N\NC(=O)c1csc(C)c1C)c1cccs1	0.475
CCC(=O)c1coc2ccc(O)cc12	0.00564
CCc1ccccc1NC(=O)c1cccc(NC(=O)/C=C/c2ccco2)c1	-0.691
CCCOc1ccc(C(=O)CCC(=O)OCC(=O)Nc2ccc(Oc3ccccc3)cc2)cc1	-0.0976
CC(C)(C)OC(=O)N1CCCC1C(=O)NCCc1ccccc1 (stereo unspecified)	0.213
Cc1cccc(C(=O)O/N=C2/CC3CCC2(C)C3(C)C)c1 (stereo unspecified)	0.616
CCOc1ccc(NC(=O)N2CCC(C(=O)c3ccc(F)cc3)CC2)cc1	-0.802
CCCCCCCCCCOC(=O)c1csc2nnsc12	-0.158
COC(=O)c1cccc(NC(=S)Nc2cccc(Cl)c2C)c1	0.445

Compound	z-score
Cc1cc2oc(=O)cc(CSc3nc(N)cc(N)n3)c2cc1C(C)C	-0.862
CCCCCn1c(=O)c(Cc2ccccc2)c(O)c2ccccc21	-0.687
Cc1ccc(S(=O)(=O)NC(=O)Nc2nnc(C)s2)cc1	-0.329
O=C(COC(=O)c1ccc(Br)cc1)NCCc1ccccc1	0.111
O=C(COC(=O)c1ccccc1OCc1ccc(Cl)cc1)NC1CC1	-0.153
O=C(O)c1ccc2c(c1)ncn2C1CCCCC1	0.0749
Cc1ccc(NC(=O)c2nccnc2C(=O)O)cc1C	-0.208
COc1ccc(/C=C(/C#N)C(=O)Nc2ccccc2C)cc1C(=O)O	0.919
CNC(=S)NNC(=O)c1sccc1C	-0.0354
CCCCNC(=O)C(=O)N/N=C/c1cccc(Br)c1	0.475
CC(=O)c1ccc(OCC(=O)c2cc(C)n(-c3ccc4c(c3)OCO4)c2C)cc1	-0.81
O=C(O)c1ccccc1OCCOc1ccccc1C(=O)O	-0.0901
Cc1ccc(Nc2ccc(S(=O)(=O)N3CCOCC3)cc2[N+](=O)[O-])cc1C	-0.196
CC(=O)OCCNC(=O)c1cc2ccccc2oc1=O	-0.258
Cc1cccc(N2C(=S)N=C(Nc3c(C)cccc3C)C23CCOC(C)(C)C3)c1 (stereo unspecified)	-0.179
Cc1cc(C)n(-c2nc(C)nc3c2cnn3-c2ccccc2)n1	0.697
COc1ccc(CCNC(=O)COC(=O)c2ccc(Br)o2)cc1	-0.0353
O=C(CCSc1ccc(Cl)cc1)N1CCOCC1	-0.207
Cc1ccccc1NC(=O)Cn1cnc2c1c(=O)n(C)c(=O)n2C	0.132
CC(C)(C)c1cc(NC(=O)CSc2nncs2)n(-c2ccccc2)n1	-0.0332
O=c1oc(-c2ccccc2)nc2sc3c(c12)CCCC3	0.445
Cc1ccc(C)c2c(SC(C)C(=O)NCc3ccco3)nc(-c3ccccc3)nc12 (stereo unspecified)	0.598
c1ccc(COc2ccccc2CNCc2cccnc2)cc1	-0.188
COc1ccc(C(=O)NN)cc1COc1ccc(Br)cc1	0.0387

Compound	z-score
CCOC(=O)CSc1nc2c(sc(=S)n2Cc2ccco2)c(=O)n1-c1ccccc1	-0.492
O=C(Cn1nnc2ccccc21)N1CCCCC1	-0.0475
CCOC(=O)c1[nH]cnc1C(=O)NC1CCCCC1	-0.225
CCOC(=O)CSc1nnc(-c2cccc(Br)c2)o1	-0.186
CCOC(=O)COc1ccccc1-c1ccno1	-0.0953
COc1cc(C=O)ccc1OCCCCOc1ccccc1[N+](=O)[O-]	-0.729
S=C(c1ccc(-c2cc(Cl)ccc2Cl)o1)N1CCCCC1	-0.0149
Cc1ccc(SCc2cc(=O)[nH]c(Nc3nc(C)c4cccc(C)c4n3)n2)cc1	-0.479
CCn1c(C)cc(/C=C2/NC(=O)N(CC(=O)Nc3cccc(C)c3)C2=O)c1C	-0.416
CC1(C)N=C(N)NC(Nc2cccc(Br)c2)=N1	0.821
NC(=O)C1(S(=O)(=O)c2ccccc2)CCCCC1	0.127
O=C(Nc1cccc(Br)c1)c1ccc(CSc2ccccc2)cc1	-0.279
Cc1cc2nc(-c3cccc(NC(=O)c4ccc(Br)o4)c3)oc2cc1C	-0.467
COC(=O)C1=C(NC(=O)c2ccc(C)c(C)c2)CCS1	0.579
COc1ccc(CCn2c(N)c(S(=O)(=O)c3cccs3)c3nc4ccccc4nc32)cc1OC	-0.349
Cc1ccccc1C(=O)Nc1nc(=S)ss1	2.56
COC(=O)C(C)NC(=O)C(C)NC(=O)OCc1ccccc1 (stereo unspecified)	-0.0538
O=C(Cn1c(COc2ccccc2)nc2ccccc21)Nc1cc(Cl)ccc1Cl	-0.284
C=C(C)Cn1c(SCC(=O)N/N=C/c2cccc(O)c2)nc2ccccc2c1=O	-0.962
O=c1[nH]c2cc3c(cc2cc1C(c1nnnn1Cc1ccccc1)N1CCCCCC1)OCCO3 (stereo unspecified)	-0.315
CC(C)NS(=O)(=O)c1ccc(NC(=O)CCc2ccccc2)cc1	-0.304
O=C(CN1CCOCC1)Nc1ccccc1Cl	0.214
CSc1ccc(Cn2nnc(C(=O)NCc3ccccc3)c2N)cc1	-0.439
COc1ccc(CC(=O)N2CCC(Nc3nc4ccccc4n3Cc3ccc(F)cc3)CC2)cc1	-0.087

Compound	z-score
Cc1ccc(NC(=O)N2CCC(C(=O)NCc3ccccc3)CC2)cc1	-0.545
CCC1S/C(=C(\C#N)C(=O)NCc2ccco2)N(c2ccc(Br)cc2)C1=O (stereo unspecified)	-0.137
Cc1cc(NS(=O)(=O)c2ccc(NC(=O)COc3ccccc3Cl)cc2)no1	0.0472
N#CC1=C(N)C(C#N)(C#N)C(c2ccncc2)C2CN(C(=O)OCc3ccccc3)CC=C12 (stereo unspecified)	-1.7
CCCOC(=O)c1ccc(NC(=O)c2cn(CC)c3nc(C)ccc3c2=O)cc1	-0.0515
COC(=O)c1cc(OC)c(OC)cc1NC(=S)N1CCN(c2ccccc2)CC1	0.413
O=c1oc2ccccc2cc1NCc1ccccc1O	-0.317
O=C(NCC1CCCO1)c1cc(-c2ccccc2)on1 (stereo unspecified)	0.0734
NS(=O)(=O)c1ccc(NC(=O)Cn2ncc3c2-c2ccccc2OC3)cc1	-0.00479
OC1CCCN(Cc2ccccc2)C1 (stereo unspecified)	-0.193
COc1cc(NC(=O)COC(=O)CNS(=O)(=O)c2ccc(F)c(F)c2F)cc(OC)c1	-0.336
CC(C)(C)c1nc(SCC(=O)NCc2ccco2)c2ccccc2n1	-0.748
CCSc1nc2c(c(=O)[nH]1)C(C(C)C)C(C#N)=C(N)O2 (stereo unspecified)	-0.27
Cc1cc(O)cc(O)c1C=NCc1ccco1	-0.521
CCOC(=O)N1CCN(c2ccccc2O)CC1	-0.0312
COc1ccc(N2CCN(C(=O)CC(NC(N)=O)c3cccc(Oc4ccccc4)c3)CC2)cc1 (stereo unspecified)	-0.0409
CSc1ccc(/C=N\NC(=O)COc2ccc(Cl)cc2Br)cc1	-0.285
Cc1noc(C)c1S(=O)(=O)N(CC(=O)NCc1ccc(Cl)cc1)c1ccc2c(c1)OCO2	-0.098
N[C@@H](Cc1ccccc1)c1nnc(SCc2ccccc2Cl)o1	-0.0808
O=C(O)CCc1ccc(-c2cccs2)n1Cc1ccco1	0.499
CCN1CCN(c2cc(C(C)(C)C)nc3c(-c4ccccc4)c(C)nn23)CC1	-0.0918
COc1ccc(-c2cc(N)n(S(=O)(=O)c3ccc(F)cc3)n2)cc1OC	-0.473
CCOc1ccc(NC(=O)Nc2cc(-c3ccccc3)sc2C(=O)OC)cc1	-0.0844
CCc1nnc(NC(=O)CSc2nccn2-c2cccc(C)c2C)s1	-0.448

Compound	z-score
Cc1ccc(-n2c(SCC(=O)OC(C)C)nnc2-c2cnccn2)cc1	0.00862
O=C1c2ccccc2C(Nc2ccc3c(c2)OCO3)N1Cc1ccco1 (stereo unspecified)	0.00476
O=C(NCCc1ccncc1)C12CC3CC(CC(C3)C1)C2	0.467
C=CCn1c(SCCC(=O)O)nc2c1c(=O)n(C)c(=O)n2C	-0.231
O=C(c1cc2c(ccc3ccccc32)o1)N1CCN(c2ncc(C(F)(F)F)cc2Cl)CC1	-0.108
C/C(Cl)=C\Cn1c(Nc2ccccc2)nc2c1c(=O)n(C)c(=O)n2C	-0.66
CC(C)CNc1nc2c(c(=O)n(C)c(=O)n2C)n1Cc1cccc(Br)c1	-0.146
CCOC(=O)c1c(NC(C)=O)sc2c1C1CCN2CC1	0.0192
COC(=O)CC1C(=O)NCCN1C(=O)CSc1nnc(Nc2ccc(C)cc2)s1 (stereo unspecified)	-0.0968
O=C(Nc1nnc(C2CC2)s1)c1ccccn1	0.416
O=C(CN1CCN(S(=O)(=O)c2ccc(Br)cc2)CC1)Nc1ccccc1C(=O)c1ccccc1	-0.75
COc1cccc(OCCOCCOc2ccc(C)cc2[N+](=O)[O-])c1	-0.112
COc1cccc(/C=C2\SC(=O)N(CCC(=O)NNC(=O)c3cccc(Cl)c3)C2=O)c1	-0.707
Cc1nnnn1-c1cccc(C(=O)O)c1	-0.273
Cn1c(/N=C/c2cc(Cl)ccc2O)nc2ccccc21	-0.564
COCCCn1c(CCC(=O)O)ccc1-c1cccs1	-0.132
NC(=O)c1nn(-c2ccccc2)c(=O)cc1O	-0.332
CCCCC(=O)Nc1ccc(C(=O)Nc2cccnc2)cc1	0.0123
CCOc1ccc(C)cc1S(=O)(=O)NC1CCCCC1	-0.31
Cc1ccc(S(=O)(=O)N/N=c2\oc3ccccc3cc2C(=O)Nc2cccc(C)c2)cc1	-0.247

Reference: PubChem BioAssay AID488969 (Vanderbilt High Throughput Screening Facility, 2010)
